Common to all, as to format: cell-based
Experiment [1] concerns N. gonorrhoeae. The experiment is described as follows: N. gonorrhoeae MIC. The note with it: Neisseria gonorrhoeae, strain #167.
Experiment [2] has as its system Burkholderia thailandensis Brett et al ATCC: 700388. The experiment in a line: microbe, parasite or virus in culture.
In experiment [3] the test system is Bacillus thuringiensis. The settings on record: for MIC: Bacillus thuringiensis.
Experiment [4] deals with cell wall synthesis of S. aureus. The experiment in a line: Macromolecular synthesis assay, glucosamine incorporation into cell wall. The settings on record: dose-response, FIG. 2A-2B.
Experiment [5] deals with Trichophyton rubrum. The experiment is described as follows: MIC against Trichophyton rubrum. The settings on record: Trichophyton rubrum Castellani Sabouraud ATCC: 28188.
For experiment [6], the system named is Burkholderia cenocepacia NRRL: B-59561. The experiment is described as follows: microbe, parasite or virus in culture.
Experiment [7] relates to C. albicans. The experiment is described as follows: Candida albicans MIC / MFC.
Experiment [8] has as its system Francisella tularensis subsp. Holarctica Strain LVSR NR-597. The experiment in a line: microbe, parasite or virus in culture.
In experiment [9] the test system is Candida glabrata. The experiment is described as follows: Candida glabrata MIC / MFC. The note with it: Nakaseomyces glabratus.
Experiment [10] relates to Francisella tularensis strains. The experiment is described as follows: microbe, parasite or virus in culture.

Converted amounts (≈) assume the structure as drawn. Read-outs that look alike come from different tables or passages of the source. Where only a bound is given, the exact number is not on record here.

In the case of `Brc1ccc2[nH]cc(Sc3ccccc3Br)c2c1` [Compound 174I, 5-bromo-3-((2-bromophenyl)thio)-1H-indole], the MIC is 1.56 µg/mL (≈ 4.07 µM) in experiment [1]; above 50 µg/mL in experiment [2]; 1.56 µg/mL (≈ 4.07 µM) in [3] (ATCC10792, […]); 0.78 µg/mL (≈ 2.04 µM) in experiment [3] (Bacillus thuringiensis Berliner ATCC: 10792, read-out: MIC); 1.56 µg/mL (≈ 4.07 µM) in experiment [3] ([…]); 1.56 µg/mL (≈ 4.07 µM) in [3] (strain B-1596). For the same compound, the MIC in [5] was 1.19 µg/mL (≈ 3.11 µM); in experiment [6], above 50 µg/mL; in [8], below 0.39 µg/mL; in [10] (read-out: MAX, highest MIC over the Francisella tularensis strains), 8 µg/mL (≈ 20.9 µM); in [10] (read-out: MIN, lowest MIC over the Francisella tularensis strains) it was 1 µg/mL (≈ 2.61 µM). For the same compound, the minimum bactericidal concentration (MBC) in experiment [3] (Bacillus thuringiensis Berliner ATCC: 10792) came to 1.56 µg/mL (≈ 4.07 µM). Also, in [4], the “cell wall synthesis inhibition (glucosamine incorporation)” value is reported as “substantial cell wall synthesis inhibition”. The MFC in experiment [7] (C. albicans strain #761) is 25 µg/mL (≈ 65.3 µM); in experiment [7] (C. albicans strain #762), 6.25 µg/mL (≈ 16.3 µM); in experiment [9] (C. glabrata strain #325), 50 µg/mL (≈ 131 µM); in experiment [9] (C. glabrata strain #584 (Table 7)), above 50 µg/mL; in experiment [9] (Candida glabrata #584 (Table 2), minimum fungicidal concentration), above 50 µg/mL. This compound came in with an MIC50 in [10] of 2 µg/mL (≈ 5.22 µM).

In general, MBC refers to the smallest concentration meeting the test's criterion for killing. A low value points to more potent killing. What is called MFC is the lowest tested concentration that kills the fungus rather than only halting it. The low end stands for greater fungicidal potency, the high end for weaker fungicidal potency.

For the origin of these results see patent US11180452B2, “Methods and compositions for selectively inhibiting pathogenic microbes” (priority 2019, dated 2021).
